From a collection of fitness landscapes (doi:10.1016/j.celrep.2020.107928) come the findings set out here.

To fix the notation:
B1: Caulobacter ParB omega fusion; a variant is named by its letters at X, in order, B8GW30 (parent)
chain: MESVVVGEPGMSEGRRGLGRGLSALLGEVDAAPAQAPGEQLGGSREAPIEILQRNPDQPRRTFREEDLEDLSNSIREKGVLQPILVRPSPDTAGEYQIVAGERAWRAAQRAGLKTVPIMVRELDDLAVLEIGIIENVQRADLNVLEEALSYKVLMEKFERTQENIAQTIGKSXSHVANXMRLLXLPDEVQSYLVSGELTAXHARAIAAAADPVALAKQIIEGGLSVRETEALARKAPNLSAGKSKGGRPPRVKDTDTQALESDLSSVLGLDVSIDHRGSTGTLTITYATLEQLDDLCNRLTRGI

In all, about 81,000 sequences were measured (“one-hybrid fitness for binding NBS DNA”: median about -0.1, highest 2% from about 0.36 on). Some of the results follow. Where only a bound is given, the exact number is not on record here.

In the test the parent is B1. In words: one-hybrid fitness for binding NBS DNA (the Noc-binding site; scaled: cognate 1, non-cognate 0); higher = stronger binding. The following applies: with NBS DNA site. An outline of the steps: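 The reporter was HIS3, with the binding site 19 bp from the promoter, in E. coli USO used for bacterial one-hybrid selection of Caulobacter ParB libraries with four specificity codons randomised. Growth was on M9 lacking histidine, with 0.1 mM IPTG and 5 mM 3-AT, for 48 hours at 37°C. Illumina sequencing covered plasmids before and after selection; three replicate libraries were pooled and variants with under 10 reads dropped. A fitness score is the log change in variant-to-wild-type read ratio, rescaled to the cognate and non-cognate references.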
ETTL: the “one-hybrid fitness for binding NBS DNA” value is not above 0.2.
As for AVHN, the figure is not above 0.2.
Consider NRYS, for which the “one-hybrid fitness for binding NBS DNA” value is not above 0.2.
As to HDEP, the “one-hybrid fitness for binding NBS DNA” value was not above 0.2.
For PTVE, the “one-hybrid fitness for binding NBS DNA” value is not above 0.2.
Regarding QFKF, the “one-hybrid fitness for binding NBS DNA” value is not above 0.2.
On to MMTQ, for which the “one-hybrid fitness for binding NBS DNA” value was not above 0.2.
Turning to HVHT, the “one-hybrid fitness for binding NBS DNA” value was not above 0.2.
In the case of QCVR, the “one-hybrid fitness for binding NBS DNA” value worked out at 0.48.
As to YRMT, the “one-hybrid fitness for binding NBS DNA” value was not above 0.2.
WTNC: the “one-hybrid fitness for binding NBS DNA” value was not above 0.2.
With VPIR, the “one-hybrid fitness for binding NBS DNA” value was not above 0.2.
In the case of NMNG, the “one-hybrid fitness for binding NBS DNA” value was not above 0.2.
On to SEMG, for which the “one-hybrid fitness for binding NBS DNA” value was not above 0.2.
With RAQK, the “one-hybrid fitness for binding NBS DNA” value is not above 0.2.
REGK: the “one-hybrid fitness for binding NBS DNA” value is not above 0.2.
As for MDCT, the “one-hybrid fitness for binding NBS DNA” value is not above 0.2.
For PRIA the value was not above 0.2; for PQIK, not above 0.2.
Take LADV: the “one-hybrid fitness for binding NBS DNA” value was not above 0.2.
With AFRV, the “one-hybrid fitness for binding NBS DNA” value was not above 0.2.
As for TIRG, the “one-hybrid fitness for binding NBS DNA” value was not above 0.2.
On to SQKF, for which the “one-hybrid fitness for binding NBS DNA” value is not above 0.2.
With TDIS, the “one-hybrid fitness for binding NBS DNA” value was not above 0.2.
Take KTFN: the “one-hybrid fitness for binding NBS DNA” value was not above 0.2.
For PTNT the value was not above 0.2.
With EWKF, the “one-hybrid fitness for binding NBS DNA” value is not above 0.2.
For the variant CYNR, the “one-hybrid fitness for binding NBS DNA” value is not above 0.2.
For CTYG the value was not above 0.2; for TAAW, not above 0.2.
Take WTLS: the “one-hybrid fitness for binding NBS DNA” value was not above 0.2.
With QLMK, the “one-hybrid fitness for binding NBS DNA” value was not above 0.2.
As for YQHH, the figure is not above 0.2; as for KAFG, not above 0.2; as for RWYW, not above 0.2.
As for QVAR, the figure is 0.384; as for SQNF, not above 0.2; as for ALDL, not above 0.2.
With DFLA, the “one-hybrid fitness for binding NBS DNA” value is not above 0.2.
With HSTA, the “one-hybrid fitness for binding NBS DNA” value was not above 0.2.
Consider PNEY, for which the “one-hybrid fitness for binding NBS DNA” value is not above 0.2.
GAQD: the “one-hybrid fitness for binding NBS DNA” value was not above 0.2.
Regarding NGMG, the “one-hybrid fitness for binding NBS DNA” value was not above 0.2.
VFPW: the “one-hybrid fitness for binding NBS DNA” value was not above 0.2.
With HMKV, the “one-hybrid fitness for binding NBS DNA” value is not above 0.2.
NVRK: the “one-hybrid fitness for binding NBS DNA” value is not above 0.2.
For MVSS the value was not above 0.2; for NLPC, not above 0.2.
As for TKRY, the figure is not above 0.2; as for MEAR, not above 0.2; as for GAVA, not above 0.2.
RAFT: the “one-hybrid fitness for binding NBS DNA” value was 0.242.
Regarding FNVL, the “one-hybrid fitness for binding NBS DNA” value was not above 0.2.
For DTHW, the “one-hybrid fitness for binding NBS DNA” value is not above 0.2.
For RDVW, the “one-hybrid fitness for binding NBS DNA” value was not above 0.2.
Turning to QWQG, the “one-hybrid fitness for binding NBS DNA” value was not above 0.2.
Regarding VTHL, the “one-hybrid fitness for binding NBS DNA” value was not above 0.2.
VDQP: the “one-hybrid fitness for binding NBS DNA” value was not above 0.2.
PNAT: the “one-hybrid fitness for binding NBS DNA” value was not above 0.2.
Consider YARC, for which the “one-hybrid fitness for binding NBS DNA” value is not above 0.2.
For SLNF the value was not above 0.2; for GYPI, not above 0.2.
For HEPR, the “one-hybrid fitness for binding NBS DNA” value was not above 0.2.
In the case of SREW, the “one-hybrid fitness for binding NBS DNA” value is not above 0.2.
For IPLT, the “one-hybrid fitness for binding NBS DNA” value was not above 0.2.
For KTGN, the “one-hybrid fitness for binding NBS DNA” value is not above 0.2.
As to KSNT, the “one-hybrid fitness for binding NBS DNA” value was not above 0.2.
Turning to TCAV, the “one-hybrid fitness for binding NBS DNA” value was not above 0.2.
For VQDA the value was not above 0.2.
VNVN: the “one-hybrid fitness for binding NBS DNA” value is not above 0.2.
As for VKSS, the figure is not above 0.2.
For the variant LQER, the “one-hybrid fitness for binding NBS DNA” value was not above 0.2.
Regarding PLKM, the “one-hybrid fitness for binding NBS DNA” value is not above 0.2.
With KGCV, the “one-hybrid fitness for binding NBS DNA” value was not above 0.2.
RVSM: the “one-hybrid fitness for binding NBS DNA” value is not above 0.2.
RMWN: the “one-hybrid fitness for binding NBS DNA” value is not above 0.2.
As for HCSG, the figure is not above 0.2.
As for RVLY, the figure is not above 0.2.
SEIR: the “one-hybrid fitness for binding NBS DNA” value is not above 0.2.
For VMLS the value was not above 0.2; for AQTF, not above 0.2.
As for LKQE, the figure is not above 0.2.
As for DVSD, the “one-hybrid fitness for binding NBS DNA” value is not above 0.2.
As to YYWG, the “one-hybrid fitness for binding NBS DNA” value is not above 0.2.
With MFPC, the “one-hybrid fitness for binding NBS DNA” value was not above 0.2.
For SLID the value was not above 0.2; for YVDG, not above 0.2.
For LSPR, the “one-hybrid fitness for binding NBS DNA” value was not above 0.2.
As for GPTC, the figure is not above 0.2; as for DVMK, not above 0.2; as for MTDC, not above 0.2.
With IQTS, the “one-hybrid fitness for binding NBS DNA” value is not above 0.2.
Regarding YTHA, the “one-hybrid fitness for binding NBS DNA” value is not above 0.2.
Turning to KMMS, the “one-hybrid fitness for binding NBS DNA” value was not above 0.2.
PQVT: the “one-hybrid fitness for binding NBS DNA” value is not above 0.2.
Regarding NTVV, the “one-hybrid fitness for binding NBS DNA” value is not above 0.2.
As for QDLF, the figure is not above 0.2; as for LVRR, not above 0.2; as for CVVS, not above 0.2.
Turning to VLNE, the “one-hybrid fitness for binding NBS DNA” value is not above 0.2.
In the case of HYAD, the “one-hybrid fitness for binding NBS DNA” value is not above 0.2.
With LLQI, the “one-hybrid fitness for binding NBS DNA” value is not above 0.2.
With HSRW, the “one-hybrid fitness for binding NBS DNA” value was not above 0.2.
QNIG: the “one-hybrid fitness for binding NBS DNA” value was not above 0.2.
For HHLF the value was not above 0.2; for ARYW, not above 0.2.
As for NFHD, the “one-hybrid fitness for binding NBS DNA” value was not above 0.2.
For the variant RSLD, the “one-hybrid fitness for binding NBS DNA” value is not above 0.2.
For RFKR the value was 0.522; for GLRL, not above 0.2.
On to DILQ, for which the “one-hybrid fitness for binding NBS DNA” value is not above 0.2.
Consider KYAY, for which the “one-hybrid fitness for binding NBS DNA” value was not above 0.2.
As to WENF, the “one-hybrid fitness for binding NBS DNA” value was not above 0.2.
Regarding ALFI, the “one-hybrid fitness for binding NBS DNA” value was not above 0.2.
As to RYAN, the “one-hybrid fitness for binding NBS DNA” value was not above 0.2.
With RSKC, the “one-hybrid fitness for binding NBS DNA” value came to 0.382.
In the case of LMAS, the “one-hybrid fitness for binding NBS DNA” value was not above 0.2.
Consider CQAR, for which the “one-hybrid fitness for binding NBS DNA” value is not above 0.2.
As for KRDN, the “one-hybrid fitness for binding NBS DNA” value was not above 0.2.
On to HQTR, for which the “one-hybrid fitness for binding NBS DNA” value was not above 0.2.
For the variant FAAY, the “one-hybrid fitness for binding NBS DNA” value was not above 0.2.
As for VDVL, the “one-hybrid fitness for binding NBS DNA” value was not above 0.2.
As for WATQ, the “one-hybrid fitness for binding NBS DNA” value was not above 0.2.
In the case of HFWF, the “one-hybrid fitness for binding NBS DNA” value is not above 0.2.
For GINT the value was not above 0.2; for DVTN, not above 0.2; for YRNV, not above 0.2.
On to NTES, for which the “one-hybrid fitness for binding NBS DNA” value was not above 0.2.
Regarding QVWI, the “one-hybrid fitness for binding NBS DNA” value was not above 0.2.
As for IREL, the “one-hybrid fitness for binding NBS DNA” value was not above 0.2.
As for TMYR, the figure is not above 0.2; as for SIFG, not above 0.2.
Consider FANR, for which the “one-hybrid fitness for binding NBS DNA” value was not above 0.2.
Regarding CSSA, the “one-hybrid fitness for binding NBS DNA” value is not above 0.2.
For PVQA the value was not above 0.2; for KRDD, not above 0.2; for QTTY, 0.301.
For HTTV the value was not above 0.2; for TAQK, not above 0.2.
Take SNGW: the “one-hybrid fitness for binding NBS DNA” value is not above 0.2.
For CADS the value was not above 0.2; for YMPK, not above 0.2.
Turning to VDCR, the “one-hybrid fitness for binding NBS DNA” value is not above 0.2.
Turning to PHCS, the “one-hybrid fitness for binding NBS DNA” value is not above 0.2.
For the variant WNNK, the “one-hybrid fitness for binding NBS DNA” value is not above 0.2.
Turning to CVFK, the “one-hybrid fitness for binding NBS DNA” value was not above 0.2.
Consider NCRL, for which the “one-hybrid fitness for binding NBS DNA” value was not above 0.2.
Regarding DQTK, the “one-hybrid fitness for binding NBS DNA” value was not above 0.2.
Consider VPWT, for which the “one-hybrid fitness for binding NBS DNA” value is not above 0.2.
On to KRWS, for which the “one-hybrid fitness for binding NBS DNA” value turned out to be 0.436.
As for KDES, the figure is not above 0.2; as for IPRN, not above 0.2.
As to SWPN, the “one-hybrid fitness for binding NBS DNA” value was not above 0.2.
